In the supplement of paper PMC3334620:
Whole data set: some 33,000 sequences, median “E-score (-0.5 to 0.5)” near -0.043, cut for the highest 2% near 0.37. The list shows a part of the results.

molecular target: T1, Upc2 (UniProt Q12151); assay: PBM E-score (8-mer binding enrichment) (E-score (-0.5 to 0.5)); higher = stronger / more preferred TF binding; most listed sequences are background and not binding sites; conditions: protein concentration: 200 nM; construct: GST-full length
T1 sequence: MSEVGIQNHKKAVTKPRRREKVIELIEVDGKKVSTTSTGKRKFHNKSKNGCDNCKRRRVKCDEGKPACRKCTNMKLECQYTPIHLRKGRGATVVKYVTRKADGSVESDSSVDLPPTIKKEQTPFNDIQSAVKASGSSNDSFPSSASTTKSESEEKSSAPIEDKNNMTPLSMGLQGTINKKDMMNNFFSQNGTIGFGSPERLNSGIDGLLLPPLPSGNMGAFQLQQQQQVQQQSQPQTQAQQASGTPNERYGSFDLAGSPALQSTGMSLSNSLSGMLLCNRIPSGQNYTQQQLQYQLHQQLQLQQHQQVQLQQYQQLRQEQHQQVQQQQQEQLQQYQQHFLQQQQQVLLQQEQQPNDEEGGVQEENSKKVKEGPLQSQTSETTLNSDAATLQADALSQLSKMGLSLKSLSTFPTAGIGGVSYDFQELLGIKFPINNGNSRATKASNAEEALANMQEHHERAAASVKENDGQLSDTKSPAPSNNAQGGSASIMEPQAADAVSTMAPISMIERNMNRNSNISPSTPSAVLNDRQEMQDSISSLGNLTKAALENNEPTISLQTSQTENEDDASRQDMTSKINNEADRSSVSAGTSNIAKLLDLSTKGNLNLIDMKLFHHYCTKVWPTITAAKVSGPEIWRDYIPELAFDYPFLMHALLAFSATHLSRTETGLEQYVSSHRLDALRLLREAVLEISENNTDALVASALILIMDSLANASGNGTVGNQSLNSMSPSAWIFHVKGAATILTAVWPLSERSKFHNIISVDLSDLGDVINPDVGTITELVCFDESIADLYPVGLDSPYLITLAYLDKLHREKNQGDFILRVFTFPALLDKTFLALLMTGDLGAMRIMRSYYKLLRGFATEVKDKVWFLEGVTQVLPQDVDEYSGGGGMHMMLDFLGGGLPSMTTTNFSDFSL
Outline: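 Each ungapped eight-base word and its reverse complement, pooled, received an E-score from the Universal PBM Analysis Suite. Underlying scans, normalised with masliner, recorded fluorescent anti-GST bound to GST-tagged yeast transcription factors. These were applied at about 100-200 nM to universal all-10-mer Agilent arrays double-stranded by primer extension.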

Sequence | PBM E-score
AAATAATT | 0.0449
AGAGAACG | 0.244
ATGTTTAA | 0.067
AGAAGTCA | -0.169
ATACTGTC | 0.0795
CTCCTGCA | -0.139
AGGCGCGC | 0.0734
CATCCGAG | 0.156
CGTGTTAA | -0.0587
GGCACACA | -0.136
GCTTTCAA | -0.0049
CGTGCCAC | -0.0715
CGACAGAA | 0.208
ACAAAGGG | -0.342
CGGCTACG | 0.32
GAGTCTAA | -0.0797
CGGTTCAA | -0.0515
GGGGTAAC | -0.00249
AGCGTGGA | -0.0828
ATTGCTAG | -0.174
ACAGGCTC | -0.00845
GGAGCTCA | -0.16
CACAGCCG | -0.0707
AGTCCTTA | -0.198
CCGTTAAA | 0.33

Sequence | PBM E-score
CTCAGAAC | 0.0403
AACATCGA | -0.00447
GCCAGGGA | -0.103
ATCACAAA | -0.0424
AGTTACCC | -0.0071
GCCAATGA | -0.0974
GACGCTGC | -0.0847
ACTCAACA | -0.137
GGACCGCA | 0.0332
CGTGAGGA | -0.188
CTTACCGC | -0.019
AGACGCAG | -0.129
CTACCAAC | 0.0316
ACCCTAGA | -0.0169
ACTAAAGA | -0.0119
CAGTTTTA | -0.112
ATGTACAG | -0.0922
CAATTCGA | 0.125
GCTTATCC | -0.00299
CGACGTAG | 0.171
CAGTCCAC | -0.219
CCAGGTAG | -0.22
ATCAGGAT | 0.0669
CTTCAAAG | -0.212
ACCGTACG | 0.383

Sequence | PBM E-score
GGATCGAC | -0.14
ACAACCCT | 0.0138
ATTTGAAA | 0.0202
ACATCAAA | -0.0352
CCAAAGGA | -0.235
AGAGATGC | -0.0485
ATGTCCAG | -0.0844
ATCCGGAT | -0.191
ATCCGGTA | 0.0978
AGAATTTC | -0.0372
TGACGCAA | -0.138
AACTGCAT | -0.0422
CACCGGCG | -0.105
AATACTGT | 0.082
AACCTGAT | -0.0341
CCAGCTTA | -0.102
AATATAAG | 0.0611
GGCAGAGA | -0.14
AGTGGGGG | -0.314
AGAAGTTG | 0.0297
ATGGAGCC | -0.201
TAATGTGA | -0.106
ACGAATCA | 0.297
CGGCCATC | -0.227
AATATGCT | 0.094

Sequence | PBM E-score
CAATCCTC | -0.205
TATAAGCA | 0.117
GTACCTGA | 0.162
AAGCACTG | -0.0383
CAAGGCAC | -0.0921
GTAGTTCA | -0.0988
CCCCGGGC | -0.22
CTGTGGAC | -0.23
GAGGACTC | -0.0936
CCGTTTGC | 0.304
AACTCCTA | -0.0156
AGATATTG | -0.106
ACAAAGAA | 0.0923
GAATAAGC | -0.137
GATCGGAA | -0.0015
ATTAACTG | 0.0926
GATAATGC | -0.0042
GTCTCCTA | -0.12
CTGAGGCC | -0.124
TGCTAGAA | 0.0223
AACAGCGT | 0.0176
CAAACCCC | -0.202
CGTGACGC | 0.0229
AATCAGCT | -0.174
CGAATAAA | 0.264

Sequence | PBM E-score
CGAGGCAA | 0.15
TCACTCGA | 0.0443
CAGACACA | -0.0758
AGTTGCTA | -0.0402
CACGGGCG | -0.203
CTAGGGTC | -0.15
AGGCACAG | -0.198
ATCGGTAA | 0.274
AGCCTTGA | -0.0944
AGACGGGC | -0.0532
AAGTCTCT | -0.104
ATCTACAG | -0.185
CAATGTGA | -0.0553
GAGCTCAC | 0.055
GCTGGCCA | -0.239
CCTACTTA | -0.246
ACAGACAA | 0.156
CGCACGCA | 0.0259
CAGGGACA | -0.0338
GTATTTCA | 0.00837
AGCTCGGA | 0.0921
ACGGATTC | 0.178
TATGCGGA | 0.0785
AGTGTTGG | -0.0355
CGTTGTTA | 0.0821

Sequence | PBM E-score
GAGGCGCC | 0.124
CGAGTACG | 0.348
CAACTACG | 0.0383
TAGGAAGA | -0.288
CACCCCAC | -0.121
ACCAAGGT | -0.122
TCTGTAAA | 0.0425
ACCATCCT | -0.127
AAATATCG | 0.0759
CGCTGGGA | -0.0151
ATGATAAA | 0.0843
ATATACGG | 0.456
CCCCAAAA | -0.0915
CATCTAGG | -0.155
CTTCGTAA | 0.427
CCTAATAA | 0.195
ATAAGCCC | -0.0735
GGATACGA | 0.463
ACTCGATG | 0.0489
CAGGCCTG | -0.172
CGCAGGGA | -0.261
CCTCAGGA | -0.137
AAAACCCA | 0.0439
GCTCGCAA | 0.225
ACTGGGTG | -0.201

Sequence | PBM E-score
ACTCTTTC | -0.117
CCTTCTGA | -0.164
ATCTAGAA | -0.0939
TACCCCTA | -0.122
TAGATCTA | -0.067
ATATCAAA | -0.04
AGCCGTTC | 0.212
CGCAAGCG | 0.115
GGTCGGAC | -0.0833
AGTGTAGA | -0.165
GACAGAGC | -0.259
AACTGGGA | -0.173
GCTACCCA | -0.249
AAAAAGGG | -0.178
AGGGAAAA | -0.113
AGAGGGTC | -0.227
CTGCATTC | 0.0841
CAACACAC | -0.0473
AAGTCGTC | 0.121
ACACAACG | 0.151
AACTCGCC | 0.0304
ACTAGACC | -0.198
